{
  "source": "PubChem BioAssay AID445",
  "about": "(National Center for Advancing Translational Sciences (NCATS), 2006)",
  "note": "The campaign covered roughly 110,000 compounds. About 40 (0.04%) were called active. The inconclusive results got no clear call from the source; some entries with a clear call stand among them for comparison. The call rests on the fitted dose curve; in most records, active means well fitted curve in the direction sought with a large enough effect in the signal ratio (not every such curve was filed as active); inconclusive means small, poorly fitted or top-dose-only effect, or a change in a side signal; inactive means flat fitted curve, though single readings scatter; the % refers to the signal ratio. A potency beside an inconclusive call is a rough fit, not a confirmed value. Potency means the concentration at half of the fitted maximal effect.",
  "data": [
    {"assay": "IkB Signaling;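 on IkBa stabilization activation: 0% = basal untreated cells and 100% = reference inhibitor full response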", "settings": "ABC-DLBCL IkBa-CBG/CBR dual luciferase ratio (green luciferase fused to IkBa over red control in OCI-Ly3 lymphoma cells), 4 h; IkBa stabilization activation: at 57.1 µM (top of the series), scaled: untreated 0%, proteasome inhibitor 100% unless noted", "method_in_brief": "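Curves were fitted separately to fusion (green), unfused (red) and ratio luminescence, then classed by r2, magnitude and activity. Cells: OCI-Ly3, 4 h compound plus doxycycline at 37C; 10 uM MG-132 defined full response.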", "values": [
      {"smiles": "Cc1nn(-c2ccccc2)c2c1/C(=N/O)CC(C)(C)C2", "IkBa stabilization activation": "inactive: 1.91%"},
      {"smiles": "O=c1c(-c2ccc(F)cc2)nc2cnc(Oc3ccccc3)nc2n1C[C@H]1CCCO1", "IkBa stabilization activation": "inactive: -0.466% [at 11.4 µM, scaled: untreated 0%, proteasome inhibitor 100%]"},
      {"smiles": "CCOc1ccc2c(c1)c(=O)c(C(=O)c1ccc(C)cc1)cn2Cc1ccccc1OC", "IkBa stabilization activation": "inconclusive: -1.12% [signal inhibitor]"},
      {"smiles": "CCOc1ccccc1NC(=O)CN1C(=O)C2(SCC(=O)N2c2ccc(C)cc2)c2ccccc21", "note": "(centres undefined)", "IkBa stabilization activation": "inconclusive: 3.9% [signal inhibitor]"},
      {"smiles": "CCc1nnc(NC(=O)CCC(=O)N2CCN(CCc3ccccc3)CC2)s1", "Potency": "inconclusive: 3.16 µM [signal inhibitor, full curve]"},
      {"smiles": "CC(C)c1ccc(NC(=O)Cn2c(=O)n(Cc3nc(-c4ccccc4)no3)c(=O)c3cc4c(cc32)OCO4)cc1", "IkBa stabilization activation": "inconclusive: 1.08% [signal inhibitor]"},
      {"smiles": "CCS(=O)(=O)c1ncc(Cl)c(C(=O)N(Cc2ccccc2)c2ccc(OC)cc2)n1", "IkBa stabilization activation": "inconclusive: -4.59% [signal inhibitor]"},
      {"smiles": "O=C(CN1CCN(S(=O)(=O)c2ccc(F)cc2)CC1)Nc1ccc(Cl)c(C(F)(F)F)c1", "IkBa stabilization activation": "inconclusive: 6.13% [signal inhibitor]"},
      {"smiles": "CCCOC(=O)c1ccc(NC(=O)CCC(=O)OCC)cc1", "Potency": "inconclusive: 5.01 µM [signal inhibitor, full curve]"},
      {"smiles": "CC(C)OCCCN1C(=O)c2[nH]nc(-c3ccccc3O)c2C1c1cccc(OCc2ccccc2)c1", "note": "(centres undefined)", "IkBa stabilization activation": "inconclusive: 2.32% [signal inhibitor]"},
      {"smiles": "O=C1CC(c2ccco2)c2ccc3ccccc3c2N1", "note": "(centres undefined)", "Potency": "inconclusive: 39.8 µM [rising, single point]"},
      {"smiles": "N=C(N)SCCON1C(=O)c2ccccc2C1=O", "IkBa stabilization activation": "inconclusive: 7.25% [signal inhibitor] [at 11.4 µM, scaled: untreated 0%, proteasome inhibitor 100%]"},
      {"smiles": "CCN1CCC(O)([C@H](C(=O)O)c2ccccc2)CC1", "IkBa stabilization activation": "inactive: -1.4% [at 11.4 µM, scaled: untreated 0%, proteasome inhibitor 100%]"},
      {"smiles": "CCOC(=O)c1c(C)[nH]c(CCC(=O)NCCCN2CCN(c3ccccc3F)CC2)c1C", "IkBa stabilization activation": "inactive: -1.02%"},
      {"smiles": "Cc1c2cnn(CC(=O)N3CCN(c4ccc(F)cc4)CC3)c(=O)c2c(C)n1Cc1ccccc1F", "IkBa stabilization activation": "inconclusive: 3.96% [signal inhibitor]"},
      {"smiles": "CC1(C)Cc2ccccc2-c2nnc(SCC(=O)N3CCN(c4ccccc4)CC3)n21", "IkBa stabilization activation": "inconclusive: 2.67% [signal inhibitor]"},
      {"smiles": "CN(C)c1ccc(CNC(=O)Cn2ccc3cc(S(=O)(=O)N4CCCCCC4)ccc32)cc1", "IkBa stabilization activation": "inconclusive: 1.09% [signal inhibitor]"},
      {"smiles": "CN1CCC[C@@H](CC2c3ccccc3Sc3ccccc32)C1", "IkBa stabilization activation": "inactive: 1.81% [at 25.6 µM, scaled: untreated 0%, proteasome inhibitor 100%]"},
      {"smiles": "Cc1cc(C)cc(OCC(=O)NCCN2CCOCC2)c1", "IkBa stabilization activation": "inactive: -0.674%"},
      {"smiles": "O=C(CCn1cnc2onc(-c3ccc(F)cc3)c2c1=O)N1CCN(c2ccccc2F)CC1", "IkBa stabilization activation": "inconclusive: -0.474% [signal inhibitor]"},
      {"smiles": "C=C(C)c1cccc(C(C)(C)NC(=O)N2CCN(c3ccccn3)CC2)c1", "IkBa stabilization activation": "inconclusive: -8.68% [signal inhibitor]"},
      {"smiles": "CNS(=O)(=O)c1cn(CC(=O)N2CCN(c3ccccc3OC)CC2)cc1S(=O)(=O)NC", "IkBa stabilization activation": "inactive: -0.957%"},
      {"smiles": "Cc1ccc2c(CC(=O)N(Cc3cccc(Cl)c3)C3CCS(=O)(=O)C3)coc2c1", "note": "(centres undefined)", "IkBa stabilization activation": "inconclusive: 2.16% [signal inhibitor]"},
      {"smiles": "Cc1ccc(C(=O)CC2(O)C(=O)N(Cc3ccccc3)c3ccccc32)c(C)c1", "note": "(centres undefined)", "IkBa stabilization activation": "inconclusive: 13.2% [signal inhibitor]"},
      {"smiles": "CCOC(=O)C1CCCN(C(=O)c2ccc(NC(=O)c3nsc4ccccc34)cc2)C1", "note": "(centres undefined)", "Potency": "inconclusive: 2.51 µM [signal inhibitor, full curve, poor fit]"},
      {"smiles": "COC(=O)c1ccccc1NC(=O)Cn1c(=O)cc(C)c2c(C)nn(-c3cccc(Cl)c3C)c21", "IkBa stabilization activation": "inconclusive: -1.42% [signal inhibitor]"},
      {"smiles": "Cc1ccc(N2C(=O)c3ccc(N)cc3C2=O)cc1", "IkBa stabilization activation": "inactive: 0.151%"},
      {"smiles": "c1ccc(-c2ccc(N3CC4(CCNCC4)C3)cc2)cc1", "IkBa stabilization activation": "inactive: 30% [at 11.4 µM, scaled: untreated 0%, proteasome inhibitor 100%]"},
      {"smiles": "COc1ccc(Cl)cc1NC(=O)Cn1cnc2sc(C)c(S(=O)(=O)N3CCN(c4ccccc4OC)CC3)c2c1=O", "IkBa stabilization activation": "inconclusive: 0.599% [signal inhibitor]"},
      {"smiles": "CC1=C(C(=O)OCCOC(C)C)C(c2cc3c(cc2Br)OCO3)C2=C(CCCC2=O)N1", "note": "(centres undefined)", "IkBa stabilization activation": "inactive: 0.538%"},
      {"smiles": "CSc1nc2ccccc2n1C(=O)NC1CCCCC1", "IkBa stabilization activation": "inactive: -0.108%"},
      {"smiles": "COc1ccccc1-n1c(=O)oc2ccc(Cl)cc2c1=O", "Potency": "inconclusive: 10 µM [signal inhibitor, partial curve]"},
      {"smiles": "Cc1ccc(NC(=O)[C@@H](c2ccccc2)N2Cc3ccccc3C2=O)cc1F", "IkBa stabilization activation": "inactive: 1.45%"},
      {"smiles": "C/C(=C\\COc1cc(=O)[nH]c2ccccc12)CC[C@@H](O)C(C)(C)O", "IkBa stabilization activation": "inactive: 1.31% [at 11.4 µM, scaled: untreated 0%, proteasome inhibitor 100%]"},
      {"smiles": "COc1cccc(-c2noc(C3CCCN(C(=O)Cc4ccccc4)C3)n2)c1", "note": "(centres undefined)", "IkBa stabilization activation": "inactive: 0.644%"},
      {"smiles": "CCCc1nn2c(=O)cc(COC(=O)c3ccco3)nc2s1", "IkBa stabilization activation": "inconclusive: 4.25% [signal inhibitor]"},
      {"smiles": "COc1ccc(CCNC(=O)Cn2c(=O)c3cccn3c3ccccc32)cc1OC", "IkBa stabilization activation": "inconclusive: -2.7% [signal inhibitor]"},
      {"smiles": "COc1ccccc1N1CC(O)=C(c2nc3ccccc3s2)C1=N", "IkBa stabilization activation": "inconclusive: 6.53% [signal inhibitor]"},
      {"smiles": "Cc1c(C(=O)NCc2ccc(F)cc2)sc2nc(-c3ccc(F)cc3)cn12", "IkBa stabilization activation": "inactive: 4.27%"},
      {"smiles": "CCOC(=O)Cn1c(=O)n(CC2CCCO2)c2nc(-c3ccc(CC)cc3)nc(C(N)=O)c21", "note": "(centres undefined)", "IkBa stabilization activation": "inconclusive: 2.27% [signal inhibitor]"},
      {"smiles": "CCCCOc1ccccc1C1CC(=O)Nc2cc(OC)c(OC)cc21", "note": "(centres undefined)", "IkBa stabilization activation": "inactive: 0.546%"},
      {"smiles": "CC(=O)Nc1c(C)nn(-c2ccccc2)c1N1CCC(C(=O)Nc2cccc(C(F)(F)F)c2)CC1", "IkBa stabilization activation": "inconclusive: 3.83% [signal inhibitor]"},
      {"smiles": "CCCN(CCC)C(=O)C1CCCN(c2ncnc3c2nc2n3CCCCC2)C1", "note": "(centres undefined)", "IkBa stabilization activation": "inconclusive: -1.52% [signal inhibitor]"},
      {"smiles": "CCc1nnc2c3ccccc3nc(N3CCN(c4cc(C)ccc4C)CC3)n12", "IkBa stabilization activation": "inconclusive: -0.719% [signal inhibitor]"},
      {"smiles": "COc1ccc2[nH]c(=O)c(CN(Cc3cccnc3)C(=O)Nc3ccccc3)cc2c1", "IkBa stabilization activation": "inconclusive: 1.57% [signal inhibitor]"},
      {"smiles": "CC(CCc1ccco1)NC(=O)Nc1cccc(F)c1", "note": "(centres undefined)", "IkBa stabilization activation": "inconclusive: 2.95% [signal inhibitor]"},
      {"smiles": "Cc1nc2c(c(C)nn2C(C)(C)C)c(C)c1CCC(=O)Nc1ccc(Br)cc1Br", "IkBa stabilization activation": "inconclusive: 0.0367% [signal inhibitor]"},
      {"smiles": "COc1ccc(C(=O)Nc2nc3n(n2)C(c2ccc(F)cc2)C=C(c2ccc(Cl)cc2)N3)cc1", "note": "(centres undefined)", "IkBa stabilization activation": "inactive: 0.114%"},
      {"smiles": "CN(Cc1ccccc1)c1nc2c(c(=O)[nH]c(=O)n2C)n1Cc1ccccc1Cl", "IkBa stabilization activation": "inactive: 1.85%"},
      {"smiles": "CCc1cc2ccccc2nc1SCC(=O)N1CCN(C(=O)c2ccco2)CC1", "IkBa stabilization activation": "inconclusive: 1.58% [signal inhibitor]"},
      {"smiles": "Cc1c(C(=O)N(C)C)sc2c1c(=O)n(-c1ccc(Cl)c(Cl)c1)c(=O)n2CC(=O)Nc1ccc(Br)cc1F", "IkBa stabilization activation": "inactive: 1.12%"},
      {"smiles": "COc1ccc(-n2cc(-c3ccc4c(c3)OCO4)n(CC(=O)Nc3cccc(C)c3)c2=O)cc1", "IkBa stabilization activation": "inconclusive: 5.88% [signal inhibitor]"},
      {"smiles": "CCCCC1CCC(CCCC(C)CCC(=O)O)CC1", "note": "(centres undefined)", "Potency": "inconclusive: 31.6 µM [signal inhibitor]"},
      {"smiles": "O=C(CC1N=C2c3ccccc3N=C(SCC(=O)Nc3ccc(F)cc3)N2C1=O)NCc1ccc2c(c1)OCO2", "note": "(centres undefined)", "IkBa stabilization activation": "inconclusive: 1.83% [signal inhibitor]"},
      {"smiles": "Cc1ccccc1Cn1c(SCc2ccc(C(=O)NCCc3ccccc3)cc2)nc2ccncc21", "IkBa stabilization activation": "inconclusive: 1.9% [signal inhibitor]"},
      {"smiles": "CCN(CC)c1cc2c(cc1F)c(=O)c(S(=O)(=O)c1ccccc1)cn2C", "IkBa stabilization activation": "inconclusive: 4.16% [signal inhibitor]"},
      {"smiles": "CN1CCN(c2ncc3nc(-c4cccs4)c(=O)n(Cc4ccc(F)cc4)c3n2)CC1", "IkBa stabilization activation": "inactive: 0.28% [at 11.4 µM, scaled: untreated 0%, proteasome inhibitor 100%]"},
      {"smiles": "CCOc1ccc(NC(=O)CN2CCSc3ccc(S(=O)(=O)N4CCCC4)cc32)cc1", "IkBa stabilization activation": "inconclusive: 0.812% [signal inhibitor]"},
      {"smiles": "Cc1noc(Cn2c(=O)c3ccccc3n(CC(=O)Nc3ccc(C(C)C)cc3)c2=O)n1", "IkBa stabilization activation": "inconclusive: 0.907% [signal inhibitor]"},
      {"smiles": "Cc1cc(N)c2ccccc2[n+]1CCCCCCCCCCCCCC[n+]1c(C)cc(N)c2ccccc21", "Potency": "inconclusive: 5.01 µM [signal inhibitor, full curve, poor fit]"},
      {"smiles": "CCOC(=O)c1c(NC(=O)CSc2nnc(-c3ccccc3C)n2C)sc(C(C)=O)c1C", "IkBa stabilization activation": "inconclusive: -0.0935% [signal inhibitor]"},
      {"smiles": "CCc1cccc(NS(=O)(=O)c2cc(-c3cnc(C)o3)ccc2OC)c1", "IkBa stabilization activation": "inconclusive: 0.372% [signal inhibitor]"},
      {"smiles": "CCc1ccccc1NS(=O)(=O)c1cc(Br)cc2c1N(C(=O)C1CC1)CC2", "IkBa stabilization activation": "inconclusive: 7.53% [signal inhibitor]"},
      {"smiles": "Cc1cccc(-c2nnc3sc(-c4ccccc4C)nn23)c1", "IkBa stabilization activation": "inactive: -1.51%"}
    ]}
  ]
}
